This passage reports self-cleavage results from the RNAGym collection of RNA variant scans (doi:10.7554/elife.90254).

B1: LINE1-mini (parent)
chain: GGCAGAGCUCAACACAGCGUGGCAAAGUGGCUGUGGCUAGACUGCC

Read counts are not given, so values of variants with three or more changes are uncertain.

In the data set the parent is B1. As to the kind of experiment: self-cleavage, relative activity (ratio to wild type); higher = more cleavage; in vitro, sequencing; the parent is a self-cleaving ribozyme.
With GGCAGGGCUCAACACAGCGUGGCAAAGUGGCUUUGGCUAGACUCCC, the self-cleavage was 0.05.
The value for GGCAGGGCUCAACACAUCGUGGAAAAGUGGCUGUGACUAGACUGCG was 0.27; that for GGCAGGGCUCAACACAGCCUGGCAAAGUGGCUGUUGCUAGACUGCC was 0.03; that for GGCAGGGCUCAACACAACGUGGUAAAGUGGCUGUGGCUAGAAUGUG was 0.04.
For GGCAGGGCUCAACACAGCUUGGCAAAGUGGAUGCGGCUAGACUGCC, the self-cleavage came to 0.01.
Take GGCAGGGCUCAACACAGCGUAGCGAAGUGGCGGCGGCUAGACUGCC: the self-cleavage stood at 0.25.
For the variant GGCAGGGCUCAACACAGCGUGUCUAAUUGGCUGUGGCUAUACUGCC, the self-cleavage was found to be 0.12.
In the case of GGCAGGGCUCAACACAUCGUGGCAAAGUGGCGGUGGCUAGACUGUC, the self-cleavage worked out at 0.
On to GGCAGGGCUCAACACAGCGUGACAAAGUGGCUGAGGCUAGUCUGCC, for which the self-cleavage amounted to 0.05.
The value for GGCAGGGCUCAACACAGCCUGGCAACGUGACUGUGACGAAACUGCC was 0.02; that for GGCAGGGCUCAACACAACGCGGCAAGGUAGCUGUGGCUAGACUGCC was 0.04.
For the variant GGCAGGGCUCAACACAGCGUGACAGAGUGGCAGUGGCUAGACUGCC, the self-cleavage amounted to 0.07.
Consider GGCAGGGCUCAACACAGCGUCGCAUAGUGGCUGUGGCUAGACUGCC, for which the self-cleavage is 0.06.
GGCAGGGCUCAACACAGCUUGCCAAGGUGGUUGUGGCUAGACUGGC: the self-cleavage was found to be 0.03.
For GGCAGGGCUCAACACAGCUGGACAAGGUGGCUGUGGCUAAACUGCC, the self-cleavage turned out to be 0.07.
Regarding GGCAGGGCUCAACACAGCGUGGCAAAUUGGCUGUGGUUAAACUGAC, the self-cleavage came out at 0.09.
As to GGCAGGGCUCAACACAGCGUGACAAAGUGGCUGUGACUAGACUGCC, the self-cleavage is 0.56.
For the variant GGCAGGGCUCAACACAGCAUGGCAAAGGGGCUGUGGCCAGACUGCC, the self-cleavage is 0.21.
Regarding GGCAGGGCUCAACACAGCGUGGCAAAGUGCCUGUGGCUAGACUUCC, the self-cleavage amounted to 0.03.
Consider GGCAGGGCUCAACACAACGUGGCAAAGUGGCUGUCGCUAGACUGCA, for which the self-cleavage is 0.
To GGCAGGGCUCAACACAGCGUAGCAAAGAUGCUGUGGCUAGACUGCC belongs 0.03; to GGCAGGGCUCAACACAACGUGGCAAAGUGGCUGUGGCUAGACUGAC, 0.04.
Consider GGCAGGGCUCAACACAGCGUGCCAAAGUGGCUGUGGCUAGACUGCU, for which the self-cleavage amounted to 0.02.
Turning to GGCAGGGCUCAACACAGCGUGGCAAAGUUGCUGUAGCUAGGCUGCC, the self-cleavage is 0.07.
GGCAGGGCUCAACACAGCGUGUCAAAGUGGCUGUGGCUACUCUGCC: the self-cleavage worked out at 0.13.
For GGCAGGGCUCAACACACCGUGGCAAAGGGGCUGUGGCUAGACGGCC, the self-cleavage came to 0.
To GGCAGGGCUCAACACAGCUUGGCAAAGUGGCUUUGGCUAGACUGCC belongs 0.02; to GGCAGGGCUCAACACAGCGUGGCAAAGUGGCUAUGGCUAGACUGGC, 0.02.
Take GGCAGGGCUCAACACAGCGUAUCAAAGUGGCUGUGGCUAGACUGCC: the self-cleavage came to 0.09.
On to GGCAGGGCUCAACACAGCGUGCCAAAGUGGCUCUGGCUAGACUGCC, for which the self-cleavage was 0.01.
To GGCAGGGCUCAACACAGCGUCGCAAAGUGGCUGUGGCUAGGCUGCC belongs 0.13; to GGCAGGGCUCAACACAAAGUGGCAAAGUGGCUGUGGCUAGACUCCC, 0; to GGCAGGGCUCAACACAGCCAGGCAAAUUGGCUGUGGCUGGACUGCC, 0.
For the variant GGCAGGGCUCAACACAUCGUGGCAAAGUGGCUGGGGCUCGACUGCC, the self-cleavage is 0.
For the variant GGCAGGGCUCAACACAGCUUGGCAAAGGGGCUGUGGCUAGACUGCC, the self-cleavage was 0.05.
The value for GGCAGGGCUCAACACAUCGUGGCAAAGUGGCUGUAUCUAGACUGCC was 0.34; that for GGCAGGGCUCAACACAGCGUAGCAAAGUUGCUGUGGCUCGACUACC was 0.47; that for GGCAGGGCUCAACACAGCGUGGCAAAGUGCCUUUGGCUAGACUGCC was 0.
The value for GGCAGGGCUCAACACAGCGUGCCAAAGUGGUUGUGGCUAGACUGCC was 0.01; that for GGCAGGGCUCAACACAGCGUGGCAAAAUGGCUGUGGGUAUACGGCC was 0.08.
With GGCAGGGCUCAACACAGCAUGGCAAAGUGGCUGCGGCUAGACUGCC, the self-cleavage came out at 0.03.
For the variant GGCAGGGCUCAACACAGCGUGGCAAAGUGGCUAUGUCUAUACUGCC, the self-cleavage amounted to 0.08.
In the case of GGCAGGGCUCAACACAACGUGGUAAACUGGCUGGGGCUAGACUUCC, the self-cleavage was found to be 0.59.
As for GGCAGGGCUCAACACAGCCUGGCAAAGUGGCUGUGGCUAGGCUGCC, the self-cleavage came to 0.08.
The value for GGCAGGGCUCAACACAACGUGGCAAAGUGGCUUUGGCUAGACUGAC was 0.03.
As to GGCAGGGCUCAACACAGCUUGGCAAAGUCGCUGUGGCUAGACUGCC, the self-cleavage came out at 0.01.
For the variant GGCAGGGCUCAACACAGCUUGGCAAAGUAGCUGUGGCUAGACUGCC, the self-cleavage is 0.04.
The value for GGCAGGGCUCAACACAGCCUGGCAAUGUGGCUCUGGCUAGACUGCC was 0.03; that for GGCAGGGCUCAACACAUGGUGGCAAAGUGGCUGUGGCUAGACUGCG was 0.01; that for GGCAGGGCUCAACACACCGUGGCACAGUGGCUGUGGCUAGACGGCA was 0.01.
With GGCAGGGCUCAACACAGCGUCGCUAAGUGGCUGUGGCUAGACUGCC, the self-cleavage was determined as 0.04.
In the case of GGCAGGGCUCAACACAGCGUUGCAAAGUCGCUGUGGCUACACAGCC, the self-cleavage was 0.01.
Regarding GGCAGGGCUCAACACAGCGUGGCAAAGUGCCUGUGGAUAGACUGCC, the self-cleavage was found to be 0.07.
With GGCAGGGCUCAACACAGCUUGGCAGAGUGGCUGUGGCUAGACUGGC, the self-cleavage amounted to 0.54.
With GGCAGGGCUCAACACAGCGUAGCUAAGUGGCUUUGGCUAGACUGCC, the self-cleavage turned out to be 0.08.
As to GGCAGGGCUCAACACAGCCUGGCAAAGCGGCUGUGGCUUGACUGCC, the self-cleavage is 0.01.
